Article PMC4336329 (PLoS ONE, 2015)
The campaign covered roughly 310,000 compounds. About 2,200 (0.71%) showed an effect of 50% or more. Effects have a minus sign here. This is one part of the list.

molecular target: human ether-à-go-go-related gene (hERG) potassium channel (human, UniProt Q12809); assay: primary screen, population patch clamp on CHO cells stably expressing hERG
Sequence (Q12809 whole entry, looked up): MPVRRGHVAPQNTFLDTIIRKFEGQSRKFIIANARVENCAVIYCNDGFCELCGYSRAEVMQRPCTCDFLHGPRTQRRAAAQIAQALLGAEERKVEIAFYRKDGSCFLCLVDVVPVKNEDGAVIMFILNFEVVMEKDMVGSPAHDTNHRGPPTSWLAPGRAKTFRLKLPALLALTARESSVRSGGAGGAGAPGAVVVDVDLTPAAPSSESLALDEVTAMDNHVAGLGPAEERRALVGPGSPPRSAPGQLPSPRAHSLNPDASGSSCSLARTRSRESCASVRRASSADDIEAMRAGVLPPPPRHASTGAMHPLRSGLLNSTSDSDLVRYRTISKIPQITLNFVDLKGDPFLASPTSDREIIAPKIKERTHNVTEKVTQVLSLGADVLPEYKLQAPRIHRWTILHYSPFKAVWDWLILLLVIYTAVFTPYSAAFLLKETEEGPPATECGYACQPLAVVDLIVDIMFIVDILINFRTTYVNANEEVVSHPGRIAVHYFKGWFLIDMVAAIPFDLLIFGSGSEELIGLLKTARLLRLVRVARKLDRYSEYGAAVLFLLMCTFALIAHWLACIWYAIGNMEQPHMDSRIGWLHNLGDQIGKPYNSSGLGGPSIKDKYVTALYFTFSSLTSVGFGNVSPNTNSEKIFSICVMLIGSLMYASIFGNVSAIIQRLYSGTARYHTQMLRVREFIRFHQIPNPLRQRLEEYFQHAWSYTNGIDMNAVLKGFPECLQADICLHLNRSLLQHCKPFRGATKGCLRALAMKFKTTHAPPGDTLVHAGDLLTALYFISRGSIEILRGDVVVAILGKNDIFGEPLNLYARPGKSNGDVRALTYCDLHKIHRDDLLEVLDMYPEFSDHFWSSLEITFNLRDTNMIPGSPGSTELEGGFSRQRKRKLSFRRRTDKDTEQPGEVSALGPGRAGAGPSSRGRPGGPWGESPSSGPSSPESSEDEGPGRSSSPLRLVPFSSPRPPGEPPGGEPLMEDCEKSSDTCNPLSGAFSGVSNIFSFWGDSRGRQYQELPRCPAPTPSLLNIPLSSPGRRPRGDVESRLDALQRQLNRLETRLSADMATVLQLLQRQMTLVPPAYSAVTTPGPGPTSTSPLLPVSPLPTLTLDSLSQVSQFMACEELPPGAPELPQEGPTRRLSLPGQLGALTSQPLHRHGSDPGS

Compound | hERG current change (%, negative = inhibition) at 1uM [%]
Cn1c(-c2c(N)n(C3CCCC3)c3nc4ccccc4nc23)nc2ccccc21 | 11.8
COc1cc2ccccc2cc1C(=O)N1CCOCC1 | -16.7
Cc1ccc(S(=O)(=O)N(C)C/N=C(\N)N[N+](=O)[O-])cc1 | 14.8
COc1ccc(/C=C2/SC(=S)N(CC(=O)O)C2=O)cc1OCc1ccc(Cl)cc1 | 17.6
COc1ccc(CCN2CCCC(CN(C)C(=O)c3ccoc3C)C2)cc1 (stereo not drawn) | 18.4
Cc1ccc(-c2cc(C(=O)N3CCN(C4CCS(=O)(=O)C4)CC3)c3ccccc3n2)cc1 (stereo not drawn) | -3.04
O=C(Nc1ccc(Cl)cc1)C1CC(=O)n2c(nc3ccccc32)N1 (stereo not drawn) | 8.1
COc1ccc(Cn2c(C(F)(F)F)ccc(C(N)=O)c2=O)cc1 | 11.5
Cc1cccc(OCC(=O)Nc2ccc3c(c2)nc(CCN2CCCCC2)n3C)c1 | -58.3
O=C(COc1ccc(Br)cc1)NCCCn1ccnc1 | 15.1
COCCCN1C(=O)C(=O)/C(=C(/O)c2ccc(S(=O)(=O)N3CCCCC3)cc2)C1c1ccc(O)c(OC)c1 (stereo not drawn) | -6.76
CCOc1ncccc1C(=O)Nc1nc(C(C)(C)C)cs1 | -0.695
Cc1c(C)c2ccc(OS(C)(=O)=O)c(C)c2oc1=O | 1.94
CC1(C)CC(=O)C2=C(C1)c1c(ccc3ccccc13)NC2c1ccco1 (stereo not drawn) | 6.38
O=C(N/N=C1\CCS(=O)(=O)c2ccc(F)cc21)c1ccc(O)cc1 | 8.27
CCc1cc2c(=O)c(-c3nc4ccccc4n3C)c(C)oc2c(CN2CCCCC2)c1O | 0.017
COc1ccc(NC(=O)c2cc3c(=O)n4ccccc4nc3n2C)cc1OC | 11.4
Cc1ccc2c(c1)N=C(c1ccc(F)cc1)CO2 | 12.6
Cc1ccc(S(=O)(=O)N2CCOCC2)cc1NC(=O)COc1ccc(-c2nnco2)cc1 | -17.3

Compound | hERG current change (%, negative = inhibition) at 1uM [%]
COc1ccccc1N(O)C1CC(=O)N(c2ccc(F)cc2)C1=O (stereo not drawn) | 10.9
Cc1nn(Cc2c(F)c(F)c(F)c(F)c2F)c(C)c1NC(=O)c1ccnn1C | -11.8
COc1ccc2c(c1OC)C(=O)N1C2SC(C)(C)[C@H]1C(=O)NC1CC1 (stereo partly drawn) | 11.9
O=S(=O)(/N=C(/c1ccccc1)N1CCCCC1)c1ccccc1 | 8.37
O=C(Cn1nc2ccccc2n1)N/N=C/c1ccc(F)cc1 | 9.25
CCC(=Nc1ccccc1N)c1c(O)[nH]c(=O)[nH]c1=O | 16.3
CCOC(=O)N1CCN(C(=O)C2CCN(c3ncnc4c3sc3cccc(F)c34)CC2)CC1 | -24.5
Cl.O=C(COc1ccc(Br)cc1)NCCN1CCCC1 | -5.54
CCOC(=O)C(=O)Cc1nc2ccccc2s1 | 5.66
Cc1nc2ccsc2c(=O)n1-c1cccc(Cl)c1 | 13.7
CCOC(=O)NC1(Nc2cccc(Cl)c2)Oc2ccccc2O1 | 13.7
CCOCCCNC(=O)C1CC(=O)N(CCc2ccc(C)cc2)C1 (stereo not drawn) | 7.88
CC1CC(Nc2ccccc2)c2ccccc2N1C(=O)c1cccnc1 (stereo not drawn) | 8.38
CCC(C)NS(=O)(=O)c1ccc(OCC(=O)NCc2ccccn2)cc1 (stereo not drawn) | 5.8
O=C(NCCc1cccs1)c1ccc(CS(=O)Cc2ccc(Cl)cc2)o1 (stereo not drawn) | -11.4
COc1ccc(S(=O)(=O)N2CCc3cc4c(cc3C2C)OCCCO4)cc1 (stereo not drawn) | 8.24
CCOP(=O)(OCC)C(NC(=O)c1ccccc1Cl)=C(Cl)Cl | 20.7
O=C(NCc1cccc(Cl)c1)c1ccc(N2CC3CC(C2)c2cccc(=O)n2C3)c(NC(=O)c2cccnc2)c1 (stereo not drawn) | 2.48
COc1cc(OC)cc(C(=O)Nc2cccc(N3CCCC3)c2)c1 | 7.97

Compound | hERG current change (%, negative = inhibition) at 1uM [%]
CC(=O)Nc1cccc(C(=O)OCC(=O)NNC(=O)c2cccs2)c1 | 14.5
Cc1cc(-n2c(SCC(=O)Nc3ccc(F)c(F)c3)nc3n[nH]c(C)c3c2=N)ccc1Cl | 14.4
CCN1CCCC1CNC(=O)C(=O)NC1CC1 (stereo not drawn) | 15.3
COc1ccc(CNC(=O)C2CCN(c3nccs3)CC2)cc1 | -3.73
CC(c1cccs1)N(Cc1ccco1)C(=S)Nc1ccccc1Cl (stereo not drawn) | 11.9
C=CCOc1ccccc1/C=N/NC(=O)Cc1ccc(C)cc1 | 15.7
Cc1ccc(NC(=O)N(CCC#N)Cc2ccccc2)cc1 | 9.67
Cn1cccc1/C=N/n1c(-c2ccc(C(C)(C)C)cc2)n[nH]c1=S | 14.7
COc1ccc(CCNC(=O)C(=O)NCC2CCCO2)cc1OC (stereo not drawn) | 7.23
Cc1cc(C(=O)Nc2ccc(N3CCOCC3)cc2)c2ccccc2n1 | 8.83
CCOC(=O)c1c(NC(=O)CN2CCCCC2)sc(CN(C)C)c1-c1ccccc1 | 13.4
O=C(Nc1ccc2nccnc2c1)c1cnccn1 | 17.8
CN(C)S(=O)(=O)N(CC(=O)N1CCN(Cc2ccccc2)CC1)c1ccccc1 | 1.98
COC(=O)c1ccc(C2CC(=O)Nc3cc(OC)c(OC)c(OC)c32)cc1 (stereo not drawn) | -3.27
O=C(CSc1nnc(-c2ccc(Cl)cc2)n1-c1ccc(Cl)cc1)N/N=C/c1ccco1 | -1.3
CCN(C(=O)C12CC3CC(CC(C3)C1)C2)C1CCS(=O)(=O)C1 (stereo not drawn) | 10.8
COc1ccccc1C(=O)NC(CCSC)C(=O)NNC(=O)c1ccncc1 (stereo not drawn) | 15.5
Cc1ccc(OCC(=O)Nc2nnc(C3CCCO3)s2)c(Br)c1 (stereo not drawn) | 13.4
Cc1ccc(OCc2ccc(-c3ccccc3)cc2)c([N+](=O)[O-])n1 | 6.79
